This is an account of results in ChEMBL document CHEMBL5606458, “ASAP - ZIKV NS2B-NS3 protease fluorescence single point” (2024).

In this test the target is Nonstructural protein 3 (Zika virus) (UniProt A0A024AXB9).
Setting [1] is: PRVABC59, Concentration 50.0 uM, Number of replicates 1.0.
[2] abbreviates: PRVABC59, Concentration 15.0 uM, Number of replicates 1.0.

SMILES strings stand for the structures. Hit rate of the full screen: of about 2,700 compounds, about 160 (5.9%) showed an effect of 50% or more. This is one part of the list.

UniProt A0A024AXB9, sequence (A0A024AXB9 as listed by the source): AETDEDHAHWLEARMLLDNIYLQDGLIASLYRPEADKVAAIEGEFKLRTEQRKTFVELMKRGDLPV

Turning to `CCCCCC(=O)N[C@@H](Cc1ccc(C#N)cc1)C(=O)Nc1cccc(C(N)=O)c1`, the inhibition runs as follows: (PRVABC59, Concentration 49.5 uM, Number of replicates 2.0, Standard deviation 1.1507413475985797 %) 0.288%; (PRVABC59, Concentration 99.01 uM, Number of replicates 2.0, Standard deviation 0.4412760076959384 %) -0.031%; (PRVABC59, Concentration 198.0 uM, Number of replicates 2.0, Standard deviation 0.36329192570389796 %) 1.27%.
Consider `O=Cc1ccc(N2CCC(C(=O)Nc3ccc4scnc4c3)CC2)cc1`, for which the inhibition under setting [1] was -2.75%.
For `CNC(=O)c1cc(Cl)ccc1NS(=O)(=O)c1ccc(C(=O)N2CCOCC2)cc1`, the inhibition runs as follows: (PRVABC59, Concentration 49.5 uM, Number of replicates 2.0, Standard deviation 2.1123942311009145 %) 0.25%; (PRVABC59, Concentration 99.01 uM, Number of replicates 2.0, Standard deviation 1.3328682902857352 %) 2.39%; (PRVABC59, Concentration 198.0 uM, Number of replicates 2.0, Standard deviation 0.3170609632786013 %) 6.71%.
On to `Cc1cnccc1NC(=O)c1cnn(C2CC2)c1`, for which the inhibition (PRVABC59, Concentration 49.5 uM, Number of replicates 2.0, Standard deviation 1.699564164062767 %) was -2.95%; the inhibition (PRVABC59, Concentration 99.01 uM, Number of replicates 2.0, Standard deviation 1.3264890275888233 %) is -1.94%; the inhibition (PRVABC59, Concentration 198.0 uM, Number of replicates 2.0, Standard deviation 2.1659080003614997 %) was -1.13%.
In the case of `O=C(Nc1ccc([N+](=O)[O-])cc1C(F)(F)F)c1cc(Cl)ccc1NS(=O)(=O)c1ccc(Oc2ccccc2Cl)cc1`, the inhibition under setting [2] came to 27.2%.
Take `CC1(C)CC(=O)CC(C)(C)N1C(=O)c1cc(Cl)ccc1NS(=O)(=O)c1ccc(Oc2ccccc2Cl)cc1`: under setting [2], the inhibition is 18.2%.
Turning to `CO[C@H]1C[C@@H](CNCc2nnc3ccccn23)C1`, the inhibition by setting is: (PRVABC59, Concentration 49.5 uM, Number of replicates 2.0, Standard deviation 2.1759199842252626 %) -3.19%; (PRVABC59, Concentration 99.01 uM, Number of replicates 2.0, Standard deviation 1.2241651616551656 %) -3.67%; (PRVABC59, Concentration 198.0 uM, Number of replicates 2.0, Standard deviation 0.35144301359463626 %) -2.83%.
In the case of `Cc1cc(NC(=O)c2cc(Cl)ccc2NS(=O)(=O)c2ccc(Oc3ccccc3Cl)cc2)cnc1Br`, under setting [2], the inhibition was 31.3%.
Regarding `COc1ccc([C@H](C)NC(=O)c2cc(Cl)ccc2NS(=O)(=O)c2ccc(Oc3ccccc3Cl)cc2)cc1`, under setting [2], the inhibition was 35.3%.
As for `CC(C)N(C[C@H](O)c1ccc(O)c(O)c1)C(=O)C1CCN(c2ccc(C=O)cc2)CC1`, the inhibition under setting [1] is 20.9%.
Turning to `O=C(c1cc(Cl)ccc1NS(=O)(=O)c1ccc(Oc2ccccc2Cl)cc1)N1CCN(CCc2ccccc2)CC1`, the inhibition under setting [2] amounted to 53.5%.
For `c1cc(CN2CCOC[C@@H]2Cc2c[nH]c3ccccc23)c2[nH]ncc2c1`, the inhibition reads like this: (PRVABC59, Concentration 49.5 uM, Number of replicates 2.0, Standard deviation 1.764529400651156 %) 5.08%; (PRVABC59, Concentration 99.01 uM, Number of replicates 2.0, Standard deviation 2.5865369202481028 %) 8.07%; (PRVABC59, Concentration 198.0 uM, Number of replicates 2.0, Standard deviation 0.3813254663636482 %) 7.31%.
On to `Cn1ccc(NS(=O)(=O)c2ccc(Oc3ccccc3)cc2)n1`, for which the inhibition came to 1.52% (PRVABC59, Concentration 49.5 uM, Number of replicates 2.0, Standard deviation 3.708556244257721 %); 3.72% (PRVABC59, Concentration 99.01 uM, Number of replicates 2.0, Standard deviation 1.6649328572846385 %); 6.61% (PRVABC59, Concentration 198.0 uM, Number of replicates 2.0, Standard deviation 1.0446639254833907 %).
For the compound `Cc1noc([C@@H]2CCCCN2C(=O)C2CCN(c3ccc(C=O)cc3)CC2)n1`, the inhibition under setting [1] amounted to 25.7%.
Take `CNC(=O)c1cnncc1NS(=O)(=O)c1ccc(Oc2ccccc2Cl)cc1`: the inhibition is, setting by setting: (PRVABC59, Concentration 49.5 uM, Number of replicates 2.0, Standard deviation 0.11085177496765475 %) 3.67%; (PRVABC59, Concentration 99.01 uM, Number of replicates 2.0, Standard deviation 0.5160965893855995 %) 7.95%; (PRVABC59, Concentration 198.0 uM, Number of replicates 2.0, Standard deviation 0.0817756757043532 %) 15.2%.
Consider `O=C(NCc1ccc(Cl)c(C(F)(F)F)c1)c1cc(Cl)ccc1NS(=O)(=O)c1ccc(Oc2ccccc2Cl)cc1`, for which the inhibition under setting [2] was found to be 28.8%.
The same measure, in the same setting: to `O=C(NCc1ccccc1Oc1ccccc1)c1cc(Cl)ccc1NS(=O)(=O)c1ccc(Oc2ccccc2Cl)cc1` belongs 15.7%.
In the case of `O=Cc1ccc(N2CCC(C(=O)NCCc3ccccc3C(F)(F)F)CC2)cc1`, the inhibition under setting [1] was 25.8%.
`O=C(NCc1ccc(C(=O)N2CCCC2)cc1)c1cc(Cl)ccc1NS(=O)(=O)c1ccc(Oc2ccccc2Cl)cc1`: the inhibition under setting [2] was 25.2%.
Consider `O=Cc1ccc(N2CCC(C(=O)NCCN3C(=O)c4ccccc4C3=O)CC2)cc1`, for which the inhibition under setting [1] was 28.2%.
For the compound `O=C(NCCc1c(F)cccc1Cl)c1cc(Cl)ccc1NS(=O)(=O)c1ccc(Oc2ccccc2Cl)cc1`, under setting [2], the inhibition came to 17.9%.
For the compound `O=C(NCC1(c2ccccc2F)CCCC1)c1cc(Cl)ccc1NS(=O)(=O)c1ccc(Oc2ccccc2Cl)cc1`, under setting [2], the inhibition stood at 26.5%.
As for `O=C(NCCCc1nnc2ccccn12)c1cc(Cl)ccc1NS(=O)(=O)c1ccc(Oc2ccccc2Cl)cc1`, the inhibition under setting [2] was found to be 14%.
With `O=C(N[C@@H](Cn1ccnc1)c1ccccc1)c1cc(Cl)ccc1NS(=O)(=O)c1ccc(Oc2ccccc2Cl)cc1`, under setting [2], the inhibition turned out to be 14.8%.
As for `CCS(=O)(=O)N1CCN(C(=O)c2cc(Cl)ccc2NS(=O)(=O)c2ccc(Oc3ccccc3Cl)cc2)CC1`, the inhibition under setting [2] stood at 1.61%.
On to `O=C(NCCc1ccc(-c2ccccc2)cc1)c1cc(Cl)ccc1NS(=O)(=O)c1ccc(Oc2ccccc2Cl)cc1`, for which, under setting [2], the inhibition was determined as 1.08%.
On to `Cc1ccc([N+](=O)[O-])c(NC(=O)c2cc(Cl)ccc2NS(=O)(=O)c2ccc(Oc3ccccc3Cl)cc2)c1`, for which the inhibition under setting [2] is 24.1%.
Consider `CCS(=O)(=O)CCN(C)C(=O)c1cc(Cl)ccc1NS(=O)(=O)c1ccc(Oc2ccccc2Cl)cc1`, for which, under setting [2], the inhibition was 0.126%.
`O=C(Nc1ncc(C(F)(F)F)cc1Cl)c1cc(Cl)ccc1NS(=O)(=O)c1ccc(Oc2ccccc2Cl)cc1`: under setting [2], the inhibition is 21.3%.
In the case of `Cc1cc(CO)c2cccc(CC(=O)Nc3cc(C)[nH]n3)c2n1`, the inhibition reads like this: (PRVABC59, Concentration 49.95 uM, Number of replicates 2.0, Standard deviation 1.1960706203468343 %) 0.209%; (PRVABC59, Concentration 99.9 uM, Number of replicates 2.0, Standard deviation 0.6463869966486608 %) 7.1%.
For `O=C(NCc1ccc(Br)cc1F)c1cc(Cl)ccc1NS(=O)(=O)c1ccc(Oc2ccccc2Cl)cc1`, the inhibition under setting [2] was determined as 34.5%.
As for `O=C(NC[C@H](O)c1ccc(O)c(O)c1)c1cc(Cl)ccc1NS(=O)(=O)c1ccc(Oc2ccccc2Cl)cc1`, the inhibition under setting [2] amounted to 32.7%.
As to `O=C(Nc1cccc(Br)c1)c1cc(Cl)ccc1NS(=O)(=O)c1ccc(Oc2ccccc2Cl)cc1`, the inhibition under setting [2] was 43.8%.
In the case of `O=Cc1ccc(N2CCC(C(=O)Nc3c(F)cccc3Br)CC2)cc1`, under setting [1], the inhibition turned out to be 23.9%.
Regarding `O=Cc1ccc(N2CCC(C(=O)NCCSCc3ccccc3)CC2)cc1`, the inhibition under setting [1] amounted to 24.5%.
`O=Cc1ccc(N2CCC(C(=O)N(Cc3ccccn3)Cc3ccccn3)CC2)cc1`: under setting [1], the inhibition is -3.66%.
As to `CC(C)(C)OC(=O)[C@H]1CCCN1C(=O)c1cc(Cl)ccc1NS(=O)(=O)c1ccc(Oc2ccccc2Cl)cc1`, the inhibition under setting [2] was determined as 9.29%.
Take `CNC(=O)c1cc(Br)cnc1NS(=O)(=O)c1ccc(Oc2ccccc2Cl)cc1`: the inhibition (PRVABC59, Concentration 49.5 uM, Number of replicates 2.0, Standard deviation 0.2698167063214057 %) stood at 2.96%; the inhibition (PRVABC59, Concentration 99.01 uM, Number of replicates 2.0, Standard deviation 1.1934203843656208 %) worked out at 1.55%; the inhibition (PRVABC59, Concentration 198.0 uM, Number of replicates 2.0, Standard deviation 2.3183489334478296 %) is -1.65%.
Consider `Cc1c(Br)cccc1NC(=O)c1cc(Cl)ccc1NS(=O)(=O)c1ccc(Oc2ccccc2Cl)cc1`, for which the inhibition under setting [2] is 40%.
`O=Cc1ccc(N2CCC(C(=O)Nc3c(Cl)c(F)nc(F)c3Cl)CC2)cc1`: the inhibition under setting [1] turned out to be 19%.
In the case of `CCOc1ccccc1CCNC(=O)C1CCN(c2ccc(C=O)cc2)CC1`, under setting [1], the inhibition was 11.7%.
As to `O=C(Nc1ccncc1Br)c1cc(Cl)ccc1NS(=O)(=O)c1ccc(Oc2ccccc2Cl)cc1`, the inhibition under setting [2] worked out at 22.6%.

In general, inhibition refers to the relative decrease from the control value, in per cent.
